Experimental data reported in PubChem BioAssay (NCATS).
Some of the results follow. Further columns of the screen follow, without active or inactive calls. Most of these compounds were active or inconclusive in the main read-out, so they are no random draw. Potencies come from curve fits of mixed quality, noted in brackets.

Assay: qHTS Assay for Lipid Storage Modulators (AID 1519)
Conditions: Drosophila S3 cells, BODIPY lipid droplet/cell ratio, laser cytometry, cells loaded with oleic acid
How it was run: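 Cells seeded at 5,000 per well were treated with compounds over a concentration series and loaded with oleic acid (400 uM, as added). Lipid droplet fluorescence (488 nm excitation, 500-530 nm channel) was read by laser-scanning cytometry and normalized to 20 uM Triacsin C.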

[1] = measured here: cell count channel max response
[2] = measured here: lipid (BODIPY) channel AC50
[3] = measured here: lipid channel max response
Tags give direction and shape of the fitted curve.

| SMILES | max response [1] [%] | AC50 [2] | max response [3] [%] | AC50 (measured here: cell number channel AC50) |
| --- | --- | --- | --- | --- |
| CS(=O)(=O)N1CCC[C@@]2(CCN(C(=O)Nc3cccc(C#N)c3)C2)C1 | 14.4 | 0.0112 µM [rising, full curve, poor fit] | 24.1 | – |
| O=c1c(-c2ccc(F)cc2)nc2cnc(Oc3ccccc3)nc2n1C[C@H]1CCCO1 | -4.27 | 17.8 µM [falling, single point] | -42.5 | – |
| COc1ccc(C(=O)N2CCC[C@@]3(CCN(C(=O)Nc4cccc(C#N)c4)C3)C2)cc1 | 22.2 | 8.91 µM [rising, full curve, poor fit] | 33.9 | – |
| O=C(c1ccco1)N1CCC2(CC1)CCN(c1ccccn1)CC2 | 25.7 | 0.282 µM [rising, full curve] | 42 | – |
| COc1cc(OC)c(C(=O)CCCCN2CCC3(CC2)NC(=O)NC3=O)cc1NS(=O)(=O)c1ccc(C(F)(F)F)cc1 | 32.8 | – | 42.7 | 39.8 µM [rising, single point] |
| COc1ccccc1-c1cc(NCc2cnc(C)cn2)ncn1 | 21.3 | 0.708 µM [rising, full curve] | 24.5 | – |
| CCNc1ncc2nc(-c3ccc(OC)cc3)c(=O)n(C)c2n1 | 20.3 | 0.0794 µM [rising, full curve, poor fit] | 24.7 | – |
| O=C(c1cnccn1)N1CCC2(CCCN(c3ccccn3)C2)CC1 | 25.1 | 1.78 µM [rising, full curve] | 35.9 | – |
| COCCn1c(=O)c(-c2cccc(C#N)c2)nc2cnc(OCc3ccccc3)nc21 | 5.94 | 0.447 µM [rising, full curve, poor fit] | -3.04 | – |
